Hit rate of the full screen: of about 220,000 compounds, about 5,700 (2.6%) were called active. The shares of active, inactive and inconclusive entries below differ from those in the screen. Calls follow the shape of the dose curve; as a rule, active = well fitted inhibition curve with a large enough effect; inconclusive = small, poorly fitted or top-dose-only effect; inactive = no such curve, though single readings can be large or run the other way. Potencies beside an inconclusive call are fits to weak or partial responses and may not hold up.
target: Lysine-specific demethylase 5B (Homo sapiens) (UniProt Q9UGL1); test: Primary screen for KDM5B Histone Demethylases FDH-coupled qHTS; conditions: FDH-coupled NADH fluorescence (FDH is formaldehyde dehydrogenase); series mostly up to 57.7 µM; also: nearly all actives have a fitted effect of over 70% in size
Procedure, shortened: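 qHTS format, multiple compound concentrations. Buffer 50 mM HEPES pH 7.5/0.01% Tween-20; 200 nM KDM5BΔAP final; 10 min compound preincubation; substrate-mix levels 12.5 µM peptide, 25 µM α-KG, 0.25 mM NAD⁺; 30 min RT; ΔRFU.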
Potency is read from the fitted curve at half-maximal effect; tags tell the direction and shape of the fitted curve.

Sequence of UniProt Q9UGL1 (Q9UGL1 whole entry, looked up): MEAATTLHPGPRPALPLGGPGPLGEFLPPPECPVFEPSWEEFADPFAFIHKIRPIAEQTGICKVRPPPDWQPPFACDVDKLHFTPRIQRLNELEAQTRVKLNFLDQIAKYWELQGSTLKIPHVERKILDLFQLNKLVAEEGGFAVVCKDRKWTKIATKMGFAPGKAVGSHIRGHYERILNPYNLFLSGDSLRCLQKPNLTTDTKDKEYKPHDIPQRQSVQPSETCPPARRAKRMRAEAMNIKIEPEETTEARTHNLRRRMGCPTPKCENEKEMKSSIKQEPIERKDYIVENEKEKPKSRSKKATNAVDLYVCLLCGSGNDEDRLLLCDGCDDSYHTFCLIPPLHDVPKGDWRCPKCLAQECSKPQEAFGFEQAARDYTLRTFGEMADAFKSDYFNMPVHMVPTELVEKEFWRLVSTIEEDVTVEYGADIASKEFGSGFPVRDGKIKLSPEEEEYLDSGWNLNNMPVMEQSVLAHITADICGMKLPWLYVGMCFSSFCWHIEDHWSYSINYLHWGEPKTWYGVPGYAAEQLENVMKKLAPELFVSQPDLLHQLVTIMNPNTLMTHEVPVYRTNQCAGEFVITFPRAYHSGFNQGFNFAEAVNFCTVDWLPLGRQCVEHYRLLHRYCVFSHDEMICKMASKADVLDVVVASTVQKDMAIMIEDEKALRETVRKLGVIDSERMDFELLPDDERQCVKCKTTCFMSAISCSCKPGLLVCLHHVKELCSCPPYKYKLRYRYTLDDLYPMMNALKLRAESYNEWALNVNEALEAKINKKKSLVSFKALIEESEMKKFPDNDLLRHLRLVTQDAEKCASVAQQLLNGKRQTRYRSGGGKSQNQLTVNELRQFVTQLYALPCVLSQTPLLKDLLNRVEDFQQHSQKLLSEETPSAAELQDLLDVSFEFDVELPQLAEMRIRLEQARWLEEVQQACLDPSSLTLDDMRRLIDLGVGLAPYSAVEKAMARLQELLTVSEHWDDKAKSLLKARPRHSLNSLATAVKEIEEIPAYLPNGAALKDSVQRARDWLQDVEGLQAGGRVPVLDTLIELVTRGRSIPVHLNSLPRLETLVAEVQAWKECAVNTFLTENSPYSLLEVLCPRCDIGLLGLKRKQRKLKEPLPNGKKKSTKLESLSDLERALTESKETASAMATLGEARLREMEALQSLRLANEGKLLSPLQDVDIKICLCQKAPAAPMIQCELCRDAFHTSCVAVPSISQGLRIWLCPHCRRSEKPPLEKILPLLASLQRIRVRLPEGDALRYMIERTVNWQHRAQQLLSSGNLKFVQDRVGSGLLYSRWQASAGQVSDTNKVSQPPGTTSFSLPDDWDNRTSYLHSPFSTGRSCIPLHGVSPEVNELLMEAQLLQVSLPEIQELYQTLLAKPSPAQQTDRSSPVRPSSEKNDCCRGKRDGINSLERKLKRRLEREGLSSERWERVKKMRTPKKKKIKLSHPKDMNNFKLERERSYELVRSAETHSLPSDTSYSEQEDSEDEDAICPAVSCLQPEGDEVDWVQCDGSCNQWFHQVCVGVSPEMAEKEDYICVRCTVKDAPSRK

Row | Structure (SMILES) | Potency
1 | CCC(=O)Nc1cc(-c2cn3cccnc3n2)ccc1OC | inconclusive: 31.6 µM [inhibitor, partial curve, poor fit]
2 | O=C1CCN(C(=O)c2ccc3ccccc3n2)CCCCCCN1 | inactive
3 | CCOc1ccc(-c2cn3c(n2)sc2cc(C(=O)NCCCN4CCCCC4)ccc23)cc1 | inconclusive: 31.6 µM [inhibitor, partial curve, poor fit]
4 | CC1=C(C(=O)Nc2ccccc2)C(C(C)C)n2nc(SCc3ccccc3C)nc2N1 (configuration not stated) | inconclusive: 1.78 µM [inhibitor, partial curve, poor fit]
5 | COc1cc(OC)cc(C(=O)Nc2ccc3nc4n(c(=O)c3c2)CCCC4)c1 | inconclusive: 39.8 µM [inhibitor, single point]
6 | CCOc1ccc(/C=C/c2nc(C#N)c(NCc3ccc(C)cc3)o2)cc1 | inactive
7 | Cc1ccc(-c2cc(C(=O)Nc3cc(F)ccc3F)c3ccccc3n2)o1 | inconclusive: 31.6 µM [inhibitor, partial curve, poor fit]
8 | OCC1CN(c2ncccn2)CC12CCN(Cc1cc(F)ccc1F)CC2 (configuration not stated) | inconclusive: 22.4 µM [inhibitor, single point]
9 | COc1ccccc1C(=O)NCC(c1ccc(N(C)C)cc1)N1CCc2ccccc21 (configuration not stated) | inconclusive: 39.8 µM [inhibitor, single point]
10 | COc1cc(OC)cc(-n2c(=O)c3ccccc3n(Cc3ccccc3C#N)c2=O)c1 | inactive
11 | O=C(Nc1c(NC2CCCCC2)c2ccccc2oc1=O)c1ccccc1Cl | inactive
12 | COC(=O)c1ccccc1NC(=O)Cn1nnc(-c2ccc(OC)cc2)n1 | inconclusive: 39.8 µM [inhibitor, single point]
13 | O=C1N(CCCCOc2ccccc2)c2ccccc2NC12CCNCC2 | inactive
14 | O/N=c1/oc2cc3occ(-c4ccccc4)c3cc2c2c1CCC2 | inactive
15 | COc1ccc(CNC(=O)Cc2c(C)c3ccc(OC)c(OC)c3oc2=O)cc1OC | inconclusive: 31.6 µM [inhibitor, partial curve, poor fit]
16 | Oc1ccc(-c2nc(-c3ccc(Cl)s3)cs2)cc1 | inconclusive: 39.8 µM [inhibitor, single point]
17 | COC(=O)c1cc(-c2ccc(C)cc2)nc2onc(-c3ccco3)c12 | inconclusive: 17.8 µM [inhibitor, partial curve, poor fit]
18 | O=C1CCN(C(=O)[C@@H]2CCCN2S(=O)(=O)c2cccc3cccnc23)CCCCCCN1 | inactive
19 | COc1ccc(NC(=O)c2cc3c(n2C)CCN(Cc2ccc(F)cc2)C3)cc1 | inconclusive: 15.8 µM [inhibitor, partial curve, poor fit]
20 | COc1ccccc1-c1ccnc(N[C@H]2CO[C@H]3[C@@H]2OC[C@@H]3NC(=O)CCC(=O)O)n1 | inconclusive: 31.6 µM [inhibitor, single point]
21 | O=S(=O)(NC1=NCN(CCc2ccccc2)CN1)c1ccccc1 | inactive
22 | Cc1ccc(-n2nc(N3CCN(C(=O)Nc4ccccc4C)CC3)ccc2=O)cc1C | inactive
23 | Cc1ccccc1-c1noc(-c2ccc(Br)cc2)n1 | inactive

Row | Structure (SMILES) | Potency
24 | O=C(NCCc1ccc(Cl)cc1)c1ccc2nc(CCc3ccccc3)oc2c1 | inactive
25 | Cc1cccc(NC(=O)N2CCC(OC3CCN(S(C)(=O)=O)CC3)CC2)c1C | inactive
26 | CC(=O)C(=Cc1ccc(-c2cccc([N+](=O)[O-])c2)o1)C(C)=O | inconclusive: 20 µM [inhibitor, partial curve, poor fit]
27 | O=C(CSc1nncn2c1cc1occc12)Nc1ccc(F)c(Cl)c1 | inconclusive: 14.1 µM [inhibitor, partial curve, poor fit]
28 | Cn1c(=O)c2nc(SCC(=O)O)n(CCc3ccccc3)c2n(C)c1=O | inactive
29 | CCOc1ccc(-c2c(C)nn3c(C)c(C(=O)NCCN(C)C)cnc23)cc1OCC | inactive
30 | COc1ccc(NC(=O)c2cnn3c2NC(C(=O)O)=CC3/C=C/c2ccccc2)cc1Cl (configuration not stated) | inconclusive: 15.8 µM [inhibitor, partial curve, poor fit]
31 | COC(=O)CNC(=O)c1nc(-c2ccc(F)cc2)c2ccccn12 | active: 39.8 µM
32 | COc1ccc(-c2cc(N3CCOCC3=O)c3cncn3c2)cc1OC | inconclusive: 39.8 µM [inhibitor, partial curve, poor fit]
33 | NC(=O)c1noc2c1CN(c1cc(-c3ccccc3)nc3ccnn13)CC2 | active: 25.1 µM
34 | Cc1ccc(O)c(CN2CCCC(c3nc(CC(C)C)no3)C2)c1 (configuration not stated) | inactive
35 | CC(C)CN(CC(C)C)C[C@H]1O[C@H](Cc2cc(COc3ccccc3)on2)CC[C@@H]1O | inactive
36 | CN(Cc1ccccc1)c1oc(-c2cccc(Cl)c2)nc1C#N | inconclusive: 1.78 µM [inhibitor, partial curve, poor fit]
37 | COc1ccc(OC)c(NC(=O)c2cc3oc4ccccc4c3cc2O)c1 | inconclusive: 25.1 µM [inhibitor, partial curve, poor fit]
38 | Cc1ccc2cccc(NC(=O)C(C)Oc3cccc(C)c3C)c2n1 (configuration not stated) | inactive
39 | O=C(O)COc1ccc(/C=C2/NC(=O)NC2=O)cc1Br | inactive
40 | CCOc1ccc(-c2ccnc(NCC3CCNCC3)n2)cc1C(=O)O | inconclusive: 28.2 µM [inhibitor, partial curve, poor fit]
41 | O=C(c1ccc(-c2ccccc2CO)nc1)N1CCCN(c2ncccn2)CC1 | inactive
42 | O=C(NC1CCCCCC1)c1cc2c(s1)-c1ccsc1CC2 | inconclusive: 28.2 µM [inhibitor, partial curve, poor fit]
43 | COc1ccccc1-c1nnc(NC(=O)c2ccc(S(=O)(=O)N3CCCC3)cc2)o1 | inconclusive: 12.6 µM [inhibitor, partial curve, poor fit]
44 | CCOC(=O)N1CCc2c(sc(NCc3cccs3)c2C(=O)Nc2ccc(OC)cc2OC)C1 | inconclusive: 11.2 µM [inhibitor, partial curve, poor fit]
45 | CC(=O)N1N=C(c2cc(Cl)ccc2Cl)CC1c1ccc2nccnc2c1 (configuration not stated) | inactive
46 | COc1cc2cc(C(=O)N[C@@H](C)C(=O)Nc3ccc4c(c3)OCO4)[nH]c2c(OC)c1OC | inactive

Row | Structure (SMILES) | Potency
47 | Cc1noc(C)c1Cc1ccc(C(=O)N2CCC(C)(c3noc(-c4ccccn4)n3)CC2)o1 | inconclusive: 14.1 µM [inhibitor, partial curve]
48 | O=C(COCc1cc(-c2ccc3c(c2)OCO3)on1)Nc1cc(C(F)(F)F)ccc1Cl | inconclusive: 44.7 µM [inhibitor, single point]
49 | CCN1CCN(CCCNC(=O)Cn2c(-c3cccs3)cc3cc(F)ccc32)CC1 | inconclusive: 35.5 µM [inhibitor, partial curve, poor fit]
50 | Cc1cccc(CNC(=O)Cc2ccc(N(Cc3ccc(F)cc3)C(=O)c3ccco3)cc2)c1 | inconclusive: 28.2 µM [inhibitor, partial curve, poor fit]
51 | COP(=O)(OC)c1nc(Cc2ccc(Cl)cc2)oc1NCc1ccc2c(c1)OCO2 | inactive
52 | COC(=O)[C@]12C[C@H](CC(=O)NCc3cccs3)C(=O)N(CCC3=CCCCC3)C1=C[C@H](C(C)C)O[C@@H]2C1CC1 | inconclusive: 12.6 µM [inhibitor, partial curve, poor fit]
53 | CCOc1c(Br)cc(/C=C/C(=O)c2ccc(F)cc2)cc1OC | inactive
54 | CC(=O)c1cccc(NC(=O)C(C)Oc2ccc3ccc(=O)oc3c2)c1 (configuration not stated) | inconclusive: 25.1 µM [inhibitor, partial curve, poor fit]
55 | Cc1ccc(C)c(C(=O)NCc2nnc3cc(-c4nc(C)no4)ccn23)c1 | active: 25.1 µM
56 | COC(=O)c1ccccc1NC(=O)COC(=O)CO/N=C(\C)c1ccc2c(c1)OCO2 | inconclusive: 35.5 µM [inhibitor, single point]
57 | Cc1ccc(C(=O)NCc2nnc3cc(-c4nc(C5CC5)no4)ccn23)cc1 | inconclusive: 3.16 µM [inhibitor, partial curve, poor fit]
58 | O=C(Cn1c(=O)nc(-c2ccccc2)c2cc(Cl)ccc21)NCc1ccc(Cl)cc1 | inconclusive: 10 µM [inhibitor, partial curve, poor fit]
59 | CC(C)C1CN(C(=O)CN2CCCCC2=O)CCCN1Cc1ccc(F)cc1 (configuration not stated) | inconclusive: 14.1 µM [inhibitor, partial curve]
60 | O=C(CC1N=C2c3ccccc3N=C(SCc3cccc(Cl)c3)N2C1=O)NCCc1ccccc1 (configuration not stated) | inconclusive: 15.8 µM [inhibitor, partial curve, poor fit]
61 | Cc1cccc(-c2cc(C(=O)NCc3ccncc3)c3ccccc3n2)c1 | inconclusive: 25.1 µM [inhibitor, partial curve, poor fit]
62 | Cc1oc(-c2ccc(C(=O)NCc3ccccc3Cl)cc2)nc1CN1CCc2ccccc21 | inconclusive: 14.1 µM [inhibitor, partial curve, poor fit]
63 | COC(=O)/C(=C1/Oc2c(C)cc(C)cc2S1)C(F)(F)F | inactive
64 | COc1ccc(C)cc1NC(=O)c1cc(S(=O)(=O)N2CCc3ccccc3C2)ccc1F | inconclusive: 28.2 µM [inhibitor, partial curve, poor fit]
65 | CCCCNC(=O)CCn1c(=O)c2cccn2c2cccnc21 | inconclusive: 44.7 µM [inhibitor, single point]
66 | O=C(/C=C/c1c(Cl)cccc1Cl)NCCCn1ccnc1 | inactive
67 | Cc1oc(-c2ccc(C(=O)NCc3cccnc3)cc2)nc1CSc1ccccc1 | inactive

— PubChem BioAssay AID1347165 (National Center for Advancing Translational Sciences (NCATS), 2019)
